Measurements as given in PubChem BioAssay AID686978 (National Center for Advancing Translational Sciences (NCATS), 2013).
Several values for one entry are separate records, joined by “and”; a condition that tells them apart may be missing. Equal entries are not always repeated. In all, about 420,000 compounds went through this assay and about 64,000 (15%) were called active. This list was built around the results that the source calls inconclusive (neither active nor inactive); the mix of calls is not that of the screen. Calls come from the whole dose curve; as a rule, active = well fitted inhibition curve with a large enough effect; inconclusive = small, poorly fitted or top-dose-only effect; inactive = flat fitted curve, though single readings scatter. No potency is given beside an inconclusive call; the fits are too rough. A structure can be active in one record and inactive in another.
% is set by controls: 0 for no effect and ±100 for the full control effect; potency is the fitted concentration of half-maximal effect; tags give direction and shape of the fitted curve.

Experiment: qHTS for Inhibitors of human tyrosyl-DNA phosphodiesterase 1 (TDP1): qHTS in cells in absence of CPT; note: nearly all actives have a fitted effect of over 55% in size
Details: DT40 Tdp1-/- hTDP1 cells, no CPT, ATP luminescence, 48 h; activity change, negative = growth inhibition: at 46.2 µM (top of the series) unless noted
Procedure, shortened: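 A cellular qHTS used chicken DT40 cells lacking endogenous Tdp1 but carrying stably transfected human TDP1. Compounds were applied without camptothecin, and cell growth kinetics were judged by ATP-dependent luminescence after ≥48 hr.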
For `CCc1nc2ccc(C(=O)N3CCN(c4ccccc4F)CC3)cc2nc1CC`, the Potency was active: 5.8 µM.
For `CC(C)c1ccc(/C=C2\SC(=O)N(CC(=O)NCCCn3ccnc3)C2=O)cc1`, the Potency was active: 14.6 µM.
For `Cc1ccc(Cl)cc1N1CCN(C(=O)Cn2cnc3onc(-c4ccc(F)cc4)c3c2=O)CC1`, the Potency was active: 18.4 µM.
For `Cc1ccc(CN2CCSc3ccc(C(=O)N4CCOCC4)cc32)cc1`, the Potency was “inactive”.
With `Cc1cc(/C=N/O)c(C)n1-c1ccccc1` the Potency was inconclusive [inhibitor, partial curve].
In the case of `COc1ccc(N2CCN(C(=O)CSc3nnc4c(C)cc5cc(C)ccc5n34)CC2)cc1`, the Potency is reported as inconclusive [inhibitor, single point].
For `CCOC(=O)C1=C(CN2CCN(c3ccc(Cl)cc3)CC2)NC(=O)NC1c1ccc(OC)cc1` (configuration not stated), the Potency was active: 25.9 µM.
With `Cc1cc(N/N=C/c2ccc(O)cc2O)nc(-c2ccccc2O)n1` the Potency was inconclusive [inhibitor, single point].
For `COc1ccc2[nH]c(C(=O)N/N=C/c3ccccc3OC)cc2c1`, the Potency was active: 9.2 µM.
For `Cc1ccccc1OCCC(=O)OCC(=O)Nc1ccc(N2CCOCC2)cc1`, the Potency was inconclusive [inhibitor, single point].
For `Cn1c(=O)c2c(nc(SCCN3CCOCC3)n2C)n(C)c1=O`, the Potency was inconclusive [inhibitor, partial curve].
With `O=C(c1ccc(S(=O)(=O)N2CCOCC2)cc1)N(c1ccccn1)C1CCCCC1` the Potency was inconclusive [inhibitor, partial curve, poor fit].
In the case of `OC(CCc1cccc(Cl)c1)c1cccs1` (configuration not stated), the Potency is reported as “inactive”.
With `O=C(NC1CCC1)C1CCC(=O)N(Cc2ccc(Cl)cc2)C1` (configuration not stated) the Potency was “inactive”.
In the case of `Cc1ccc(NC(=O)CN(Cc2ccco2)Cc2ccccc2O)cc1C`, the Potency is reported as inconclusive [inhibitor, single point].
In the case of `O=C(Nc1ccc(F)cc1)C1CCCN1S(=O)(=O)c1ccc(Br)cc1` (configuration not stated), the Potency is reported as “inactive”.
With `COC(=O)c1ccc(CSc2ncnc3c2oc2ccccc23)o1` the Potency was inconclusive [inhibitor, partial curve].
In the case of `COc1ccc(-c2cc3nc(C)c(CCC(=O)NCc4ccco4)c(C)n3n2)c(OC)c1`, the Potency is reported as inconclusive [inhibitor, single point].
For `O=C(NC1CCCc2ccccc21)C1CCN(C(=O)c2sccc2-n2cccc2)CC1` (configuration not stated), the Potency was inconclusive [inhibitor, single point].
For `O=C(Nc1ccccc1N1CCCCC1)c1ccc(F)c(S(=O)(=O)N2CCOCC2)c1`, the Potency was active: 20.6 µM.
For `COc1ccc2ccc3c(c2c1)N=CC1(O3)N(C)c2ccccc2C1(C)C` (configuration not stated), the Potency was active: 23.1 µM.
For `CCCCNC(=O)CCC1N=C2c3ccccc3N=C(SCC(=O)NCCc3ccc(OC)c(OC)c3)N2C1=O` (configuration not stated), the Potency was “inactive”.
In the case of `CC(C)Cc1nnc(NC(=O)CN2C(=O)c3ccccc3C2=O)s1`, the Potency is reported as “inactive”.
With `COC(=O)Nc1ccc2ncn(C)c(=O)c2c1` the Potency was “inactive”.
In the case of `CCOC(=O)COc1c(-c2ccc(OC)cc2)oc2ccccc2c1=O`, the Potency is reported as inconclusive [inhibitor, single point].
With `Cn1c(SCC(=O)C(C)(C)C)nnc1-c1ccc(F)cc1` the Potency was inconclusive [inhibitor, full curve, poor fit].
For `CC1(C)CC(=O)C(C2=NC3(CCCCCC3)Cc3ccccc32)=C(O)C1`, the Potency was inconclusive [inhibitor, partial curve].
For `O=C(Nc1ccccc1C(=O)N1CCCCC1)c1cc(F)c(F)cc1Cl`, the Potency was “inactive”.
In the case of `CC(C)[C@@H](CO)NC(=O)c1ccc2c3n(nc2c1)-c1ccccc1CO3`, the Potency is reported as inconclusive [inhibitor, partial curve].
With `COc1ccc(NS(=O)(=O)c2cccc(N/C(=N\S(=O)(=O)c3ccccc3)c3ccc(F)cc3)c2)cc1` the Potency was inconclusive [inhibitor, single point].
For `COc1ccc(C(=O)CSc2nnc(COc3ccccc3)n2Cc2ccco2)cc1`, the Potency was inconclusive [inhibitor, single point].
For `CC(C)C1Nc2c(O)cc(Cl)c([N+](=O)[O-])c2C2C=CCC21` (configuration not stated), the Potency was inconclusive [inhibitor, single point].
With `COc1cccc(NC(=O)Nc2nnc([C@@H]3C[C@H](O)[C@@H](CO)O3)s2)c1` the Potency was inconclusive [inhibitor, partial curve].
For `CCOC(=O)c1c(C)[nH]c(C(=O)OCC(=O)NC2(C#N)CCCCC2)c1C`, the Potency was inconclusive [inhibitor, single point].
With `Cc1c(Cl)cccc1NC(=O)Nc1ccc(C(=O)N2CCCC2)cc1` the Potency was inconclusive [inhibitor, single point].
In the case of `Cc1ccccc1NC(=O)Nc1ccc2c(c1)CCC2`, the Potency is reported as “inactive”.
In the case of `COc1ccc(C(=O)NCCCOc2cccc(NC(C)=O)c2)cc1`, the Potency is reported as “inactive”.
In the case of `CCn1nnnc1SCC(=O)N1CCCc2ccccc21`, the Potency is reported as inconclusive [inhibitor, single point].
With `Cc1ccc(SCc2cc(=O)[nH]c(N3CCN(Cc4ccccc4)CC3)n2)cc1` the Potency was inconclusive [inhibitor, single point].
In the case of `COC1C=COC2(C)Oc3c(C)c(O)c4c(O)c(c(CN5CCN(C)CC5)c(O)c4c3C2=O)NC(=O)C(C)=CC=CC(C)C(O)C(C)C(O)C(C)C(OC(C)=O)C1C` (configuration not stated), the Potency is reported as active: 20.6 µM.
In the case of `COc1cc(/C=N/N(C)c2ccccc2)cc(Cl)c1O`, the Potency is reported as inconclusive [inhibitor, single point].
For `O=C(c1ccc(-n2nc(C(F)(F)F)c3c2CCCC3)cc1)N1CCOCC1`, the Potency was inconclusive [inhibitor, single point].
In the case of `N/C(=N\OC(=O)c1cccc([N+](=O)[O-])c1)c1ccccn1`, the Potency is reported as “inactive”.
With `CCCCCc1ccc(-c2cn(Cc3ccc(C(=O)c4ccccc4)cc3)nn2)cc1` the Potency was active: 3.16 µM and active: 4.11 µM.
For `Cc1cc(Nc2ccc(Br)cc2)n2nc(-c3ccccc3C)nc2n1`, the Potency was inconclusive [inhibitor, single point].
For `COc1ccc(CCN2C(=O)C(C)=C(C)C2=O)cc1OC`, the Potency was inconclusive [inhibitor, single point].
In the case of `CCOC(=O)[C@]12CCCC=C1N(CCC1=CCCCC1)C(=O)[C@H](CC(=O)NCc1ccc(C)o1)C2`, the Potency is reported as active: 13 µM.
For `Cc1ccsc1C(=O)NCCc1ccco1`, the Potency was “inactive”.
With `CC(NC(=O)COc1ccccc1)C(=O)NCc1ccc(S(N)(=O)=O)cc1` (configuration not stated) the Potency was “inactive”.
With `CN1c2ccc(Cl)cc2-c2nc(SCC(=O)NCc3ccc(F)cc3)ncc2S1(=O)=O` the Potency was “inactive”.
For `COc1cc(/C=C2/NC(=O)N(c3cccc(Cl)c3)C2=O)ccc1O`, the Potency was inconclusive [inhibitor, single point].
With `O=S(=O)(c1ccc2ccccc2c1)N1CCN(S(=O)(=O)N2CCCCC2)CC1` the activity change, negative = growth inhibition was inconclusive: -37.1% [inhibitor].
In the case of `CC(Sc1ncn[nH]1)C(=O)Nc1ccc(Cl)cn1` (configuration not stated), the Potency is reported as “inactive”.
With `CNC(=S)NNC(=O)c1ccc2c(c1)OCO2` the Potency was “inactive”.
For `CN(C(=O)c1cccc(NC(=O)Cc2ccc(NC(=O)C3CCCN(C(=O)C4CC4)C3)cc2)c1)C1CCCC1` (configuration not stated), the Potency was inconclusive [inhibitor, single point].
With `COc1ccc(-n2c(NNC(C)=O)nc3sc4c(c3c2=O)CCCC4)cc1` the Potency was active: 4.11 µM.
In the case of `CCOc1ccccc1NC(=O)c1ccc(NC(=O)c2ccco2)cc1`, the Potency is reported as active: 16.4 µM.
In the case of `O=C(N/N=C/c1cccnc1)c1cc(O)c(O)c(O)c1`, the Potency is reported as inconclusive [inhibitor, single point].
With `CCCCN(C(=O)c1ccc(N2CCCC2=O)cc1)c1c(N)n(CCCC)c(=O)[nH]c1=O` the Potency was “inactive”.
In the case of `COc1cc(NC(=O)C2CC(c3ccccc3O)=NO2)cc(OC)c1OC` (configuration not stated), the Potency is reported as inconclusive [inhibitor, partial curve].
In the case of `COC(=O)[C@]12CCCCC=C1N(Cc1ccc(Cl)cc1Cl)C(=O)[C@H](CC(=O)NCC1CCCCC1)C2`, the Potency is reported as active: 18.4 µM.
With `Cc1cc(O)c(C(C)C)cc1NC(=O)Nc1cc(Cl)ccc1Cl` the Potency was inconclusive [inhibitor, single point].
In the case of `O=C(CCS(=O)(=O)Cc1ccccc1)N1CCN(c2ccc([N+](=O)[O-])cc2)CC1`, the Potency is reported as inconclusive [inhibitor, single point].
In the case of `CCCCCCOc1ccc(/C=C/C(=O)Nc2sc3c(c2C(=O)OC)CCC3)cc1OC`, the Potency is reported as active: 4.11 µM.
In the case of `COc1ccc(C2=CSC3=NCCN23)cc1Br`, the Potency is reported as inconclusive [inhibitor, partial curve].
In the case of `CCN(CC)C(=O)CS(=O)(=O)CC(=O)Nc1cc(OCCOC)c(Cl)cc1Cl`, the Potency is reported as “inactive”.
In the case of `Cc1cc(NC(=O)CC(C)C)c(=O)n(Cc2c(F)cccc2Cl)c1`, the Potency is reported as inconclusive [inhibitor, single point].
With `COc1ccccc1CNC(=O)c1cc(-c2cc(F)ccc2OC(C)C)n[nH]1` the Potency was active: 20.6 µM.
With `O=C(O)CC1S/C(=N\N=C/c2ccccc2)N(c2ccc(O)cc2)C1=O` (configuration not stated) the Potency was “inactive”.
With `COCOCCn1cc(CN2CCS(=O)(=O)N(Cc3ccc(-c4ccncc4)cc3)C(C)C2=O)nn1` (configuration not stated) the Potency was “inactive”.
For `COc1ccc(N2CCN(C(=O)CCNS(=O)(=O)c3ccc(C)cc3)CC2)cc1`, the Potency was inconclusive [inhibitor, single point].
With `COc1ccc(S(=O)(=O)Nc2ccc(S(=O)(=O)N3CCCCC3)cc2)cc1` the activity change, negative = growth inhibition was inconclusive: -30.3% [inhibitor].
